These results are taken from patent EP1296995B1, “3'-PRODRUGS OF 2'-DEOXY-BETA-L-NUCLEOSIDES” (priority 2000, dated 2001).

SMILES strings stand for the structures. Read-outs that look alike come from different tables or passages of the source.

Broadly, the IC50 is the concentration at which inhibition is half-maximal.

Experiment [1] concerns the target Human DNA polymerases β (Homo sapiens, UniProt P06746).
The target in experiment [2] is T1, Human DNA pol γ (Homo sapiens, UniProt P54098).
T1 sequence (P54098 1-1239): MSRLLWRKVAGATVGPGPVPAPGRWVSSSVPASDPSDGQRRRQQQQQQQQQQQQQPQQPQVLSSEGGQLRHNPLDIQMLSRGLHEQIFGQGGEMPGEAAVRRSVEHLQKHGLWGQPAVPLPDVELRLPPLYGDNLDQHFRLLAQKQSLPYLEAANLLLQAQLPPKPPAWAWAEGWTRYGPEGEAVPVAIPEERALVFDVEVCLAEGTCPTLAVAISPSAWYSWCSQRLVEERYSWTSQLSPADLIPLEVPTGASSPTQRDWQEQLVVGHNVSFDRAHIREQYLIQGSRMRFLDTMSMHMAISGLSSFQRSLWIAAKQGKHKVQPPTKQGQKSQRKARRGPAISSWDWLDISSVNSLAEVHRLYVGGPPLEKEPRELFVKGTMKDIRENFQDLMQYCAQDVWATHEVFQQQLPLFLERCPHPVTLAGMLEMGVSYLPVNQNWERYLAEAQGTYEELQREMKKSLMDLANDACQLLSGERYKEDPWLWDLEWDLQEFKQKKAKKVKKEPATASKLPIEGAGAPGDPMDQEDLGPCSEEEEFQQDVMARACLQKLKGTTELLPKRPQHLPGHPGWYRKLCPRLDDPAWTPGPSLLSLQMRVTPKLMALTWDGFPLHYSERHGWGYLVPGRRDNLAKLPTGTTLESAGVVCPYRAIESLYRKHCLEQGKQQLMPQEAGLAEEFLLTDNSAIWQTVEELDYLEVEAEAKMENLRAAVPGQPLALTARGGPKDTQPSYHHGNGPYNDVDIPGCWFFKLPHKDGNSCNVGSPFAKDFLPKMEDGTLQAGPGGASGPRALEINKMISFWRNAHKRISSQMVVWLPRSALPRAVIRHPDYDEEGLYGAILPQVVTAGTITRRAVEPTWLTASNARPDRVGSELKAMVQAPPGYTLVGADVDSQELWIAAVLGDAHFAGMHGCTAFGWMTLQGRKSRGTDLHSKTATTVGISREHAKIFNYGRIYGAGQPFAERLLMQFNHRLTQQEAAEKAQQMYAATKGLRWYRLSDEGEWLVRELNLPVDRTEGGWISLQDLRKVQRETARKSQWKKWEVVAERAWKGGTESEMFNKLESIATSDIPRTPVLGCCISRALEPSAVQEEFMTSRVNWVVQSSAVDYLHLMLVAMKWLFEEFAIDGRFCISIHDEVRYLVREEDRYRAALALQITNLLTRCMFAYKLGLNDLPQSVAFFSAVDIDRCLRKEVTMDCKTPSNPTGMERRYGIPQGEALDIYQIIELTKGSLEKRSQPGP
T1 sequence (Q9UHN1 26-485 partner limits assumed): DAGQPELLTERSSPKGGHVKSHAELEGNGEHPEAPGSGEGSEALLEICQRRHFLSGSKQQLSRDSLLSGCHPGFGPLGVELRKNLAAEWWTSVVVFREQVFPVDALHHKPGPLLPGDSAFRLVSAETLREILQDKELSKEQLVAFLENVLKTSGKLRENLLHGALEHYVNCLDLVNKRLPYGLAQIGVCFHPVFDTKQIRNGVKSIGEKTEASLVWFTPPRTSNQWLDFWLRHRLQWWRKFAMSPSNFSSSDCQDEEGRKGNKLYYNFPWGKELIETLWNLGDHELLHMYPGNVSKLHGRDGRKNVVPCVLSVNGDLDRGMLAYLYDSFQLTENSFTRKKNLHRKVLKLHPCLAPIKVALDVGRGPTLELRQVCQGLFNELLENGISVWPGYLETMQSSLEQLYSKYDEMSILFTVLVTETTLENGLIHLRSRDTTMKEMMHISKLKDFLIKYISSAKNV

[3] abbreviates: up to concentrations of 100 µM, the highest concentration tested, listed as triphosphate form of L-dC.

As to `Nc1ccn([C@H]2CC[C@@H](COP(=O)(O)OP(=O)(O)OP(=O)(O)O)O2)c(=O)n1` [ddC-TP, reference compound], the “inhibition of human DNA polymerase β” value in experiment [1] (5 µM) stood at 50%.

On to `Nc1ccn([C@@H]2C[C@@H](O)[C@H](COP(=O)(O)OP(=O)(O)OP(=O)(O)O)O2)c(=O)n1` [L-dC-TP], for which, in experiment [2] (setting [3]), the “inhibition of human DNA polymerase γ” value was “not inhibitory”. Moreover, the “inhibition of human DNA polymerase β” value in experiment [1] (setting [3]) was “not inhibitory”.

As for `Nc1ncnc2c1ncn2[C@@H]1CC[C@H](COP(=O)(O)OP(=O)(O)OP(=O)(O)O)O1` [L-ddA-TP, reference compound], the concentration for half-maximal inhibition (IC50) in experiment [2] (read-out: IC50 Human DNA pol γ) and in experiment [1] (read-out: IC50 Human DNA pol β) was greater than 100 µM throughout.
